# ± gives the standard deviation. The entries are a selection whose mix differs from that of the whole data set.
# System: MIWI (PIWIL1) piRISC loaded with piRNA #1 (30 nt)
# Test: pre-steady-state target cleavage rate (min^-1); MIWI and MILI are mouse PIWI proteins and EfPiwi is from a freshwater sponge; tags in brackets are library labels; higher = faster piRNA-guided slicing of the target
# Conditions: guide: piRNA #1 5'p-UGAGGUAGUAGGUUGUAUAGUAUCCAGAGG; auxiliary factor: 500 nM mouse GTSF1
# In short: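 In this Cleave-'n-Seq assay, uncleaved targets were sequenced and normalised to depth and to weakly complementary targets. They came from a transcribed, DNA-blocked target RNA library […] mixed with 1 nM active affinity-purified piRISC carrying one synthetic guide, with or without 500 nM GTSF1 partner protein, in HEPES–potassium acetate buffer at 33 °C for 0–8 or 0–960 min. After three trials were pooled and k3 was capped at 0.0001 min^-1, the pre-steady-state cleavage rate was obtained from a burst-and-steady-state fit.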
# 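Also: 1 nM active piRISC with 0.1 nM target library at 33 °C single turnover.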
row,Sequence,pre-steady-state target cleavage rate
1,GGAGACGAUACUAUACCACCUACUACCUCA,1.29 ± 0.08
2,GGAGACCUAUGAUAUGUUCCUACUACGUGA,< 0.0001
3,GGAGUGGAUAGAUUACAACCUACUACCUCA,0.325 ± 0.042
4,GCUCUGGAUACUAUACAAGCUAGUACCUCA,0.655 ± 0.044
5,GCUCUGGAUAGUAUUCAACCUACUACCUCA,0.849 ± 0.044
6,GGAGACGAUACAAUACAACCUACAACCUCA,0.769 ± 0.053
7,GGACUGGAUACUAUACAACGAUCUACCUCA,< 0.0001
8,GGUCAGGAUACUAUACAACCAACUACCUCA,0.165 ± 0.016
9,GGAGUGGAUACUAUACACCUACUACCUCA,0.238 ± 0.028
10,GGAGACCUAUGAUAAGAACCUUCUACCUCA,< 0.0001
11,CCUCUGGAUACUAUACAACGUAGUACCUCA,0.0237 ± 0.0077
12,CCUGUGGAUACUAUACAACCAACUACCUCA,0.129 ± 0.013
13,GGAGAGGUUACUAUACAACCUACAACCUCA,0.405 ± 0.056
14,GGAGUGGAUACUAUACAACGUAGUACCUCA,0.183 ± 0.033
15,GGAGACCUUACUAUACAACGUACAACCUCA,0.0817 ± 0.018
16,GGAGACCUUAGUAUACAACCUACUAGCUCA,0.0674 ± 0.013

# From the supplement of paper PMC10338343
